# Assay results published in the supplement of paper PMC8728848.
# The other results are listed elsewhere or left out.
# B1: MAA (Maackia amurensis), P0DKL3 (protein)
# chain: MATSNSKPTQVLLATFLTFFFLLLNNVNSSDELSFTINNFVPNEADLLFQGEASVSSTGVLQLTRVENGQPQKYSVGRALYAAPVRIWDNTTGSVASFSTSFTFVVKAPNPDITSDGLAFYLAPPDSQIPSGSVSKYLGLFNNSNSDSSNQIVAVELDTYFAHSYDPWDPNYRHIGIDVNGIESIKTVQWDWINGGVAFATITYLAPNKTLIASLVYPSNQTTFSVAASVDLKEILPEWVRVGFSAATGYPTEVETHDVLSWSFTSTLEANCDAATENNVHIARYTA
# Experiments:
# Assay in all cases: glycan array binding signal (z-score within array); higher = stronger binding
# Settings in all cases: glycan notation: IUPAC condensed, linker removed
# [1] = biological target: GlcA3S(b1-3)Gal(b1-4)GlcNAc(b1-3)Gal(b1-4)Glc
# How it was run: (§1)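 Negative Z-scores can be read as non-binding. The Z-score is calculated within each array and then averaged across arrays of one protein sequence at different concentrations or buffers and across linkers. Arrays, 3228 in all, were curated from the Consortium for Functional Glycomics database and kept only where the protein sequence was available.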
# [2] = biological target: GlcNAc(a1-3)Gal(b1-4)GlcNAc
# How it was run: as §1
# [3] = biological target: GlcNAc(a1-4)Gal(b1-3)GlcNAc
# How it was run: as §1
# [4] = biological target: GlcNAc(a1-4)Gal(b1-4)GalNAc
# How it was run: as §1
# [5] = biological target: GlcNAc(a1-4)Gal(b1-4)GlcNAc
# How it was run: as §1
# [6] = biological target: GlcNAc(a1-4)Gal(b1-4)GlcNAc(b1-3)Gal(b1-4)Glc
# How it was run: as §1
# [7] = biological target: GlcNAc(a1-4)Gal(b1-4)GlcNAc(b1-3)Gal(b1-4)GlcNAc
# How it was run: as §1
# [8] = biological target: GlcNAc(a1-4)Gal(b1-4)GlcNAc(b1-3)Gal(b1-4)GlcNAc(b1-3)Gal(b1-4)GlcNAc
# How it was run: as §1
# [9] = biological target: GlcNAc(a1-4)Gal(b1-4)GlcNAc(b1-3)Gal(b1-4)[Fuc(a1-3)]GlcNAc(b1-3)Gal(b1-4)[Fuc(a1-3)]GlcNAc
# How it was run: as §1
# [10] = biological target: GlcNAc(a1-6)Gal(b1-4)GlcNAc
# How it was run: as §1
# [11] = biological target: GlcNAc(b1-2)Gal(b1-3)GalNAc
# How it was run: as §1
# [12] = biological target: GlcNAc(b1-2)Man(a1-3)[GlcNAc(b1-2)Man(a1-6)]Man(b1-4)GlcNAc(b1-4)GlcNAc
# How it was run: as §1
# [13] = biological target: GlcNAc(b1-2)Man(a1-3)[GlcNAc(b1-2)Man(a1-6)]Man(b1-4)GlcNAc(b1-4)[Fuc(a1-6)]GlcNAc
# How it was run: as §1
# [14] = biological target: GlcNAc(b1-2)Man(a1-3)[GlcNAc(b1-4)][GlcNAc(b1-2)Man(a1-6)]Man(b1-4)GlcNAc(b1-4)GlcNAc
# How it was run: as §1
# [15] = biological target: GlcNAc(b1-2)Man(a1-3)[GlcNAc(b1-4)][GlcNAc(b1-2)Man(a1-6)]Man(b1-4)GlcNAc(b1-4)[Fuc(a1-6)]GlcNAc
# How it was run: as §1
# [16] = biological target: GlcNAc(b1-2)[GlcNAc(b1-4)]Man(a1-3)[GlcNAc(b1-2)Man(a1-6)]Man(b1-4)GlcNAc(b1-4)GlcNAc
# How it was run: as §1
# [17] = biological target: GlcNAc(b1-2)[GlcNAc(b1-4)]Man(a1-3)[GlcNAc(b1-4)][GlcNAc(b1-2)Man(a1-6)]Man(b1-4)GlcNAc(b1-4)GlcNAc
# How it was run: as §1
# [18] = biological target: GlcNAc(b1-2)[GlcNAc(b1-4)]Man(a1-3)[GlcNAc(b1-4)][GlcNAc(b1-2)[GlcNAc(b1-6)]Man(a1-6)]Man(b1-4)GlcNAc(b1-4)GlcNAc
# How it was run: as §1
# [19] = biological target: GlcNAc(b1-2)[GlcNAc(b1-4)]Man(a1-3)[GlcNAc(b1-4)][GlcNAc(b1-2)[GlcNAc(b1-6)]Man(a1-6)]Man(b1-4)GlcNAc(b1-4)[Fuc(a1-6)]GlcNAc
# How it was run: as §1
# [20] = biological target: GlcNAc(b1-2)[GlcNAc(b1-6)]Man(a1-6)[GlcNAc(b1-2)Man(a1-3)]Man(b1-4)GlcNAc(b1-4)GlcNAc
# How it was run: as §1
# [21] = biological target: GlcNAc(b1-2)[GlcNAc(b1-6)]Man(a1-6)[GlcNAc(b1-2)Man(a1-3)]Man(b1-4)GlcNAc(b1-4)[Fuc(a1-6)]GlcNAc
# How it was run: as §1
# [22] = biological target: GlcNAc(b1-2)[GlcNAc(b1-6)]Man(a1-6)[GlcNAc(b1-4)][GlcNAc(b1-2)Man(a1-3)]Man(b1-4)GlcNAc(b1-4)GlcNAc
# How it was run: as §1
binder,measurement,setting,value
B1,glycan array binding signal (z-score),[1],-0.278
same,glycan array binding signal (z-score),[2],0.192
same,glycan array binding signal (z-score),[3],-0.226
same,glycan array binding signal (z-score),[4],-0.158
same,glycan array binding signal (z-score),[5],0.28
same,glycan array binding signal (z-score),[6],0.343
same,glycan array binding signal (z-score),[7],0.358
same,glycan array binding signal (z-score),[8],0.056
same,glycan array binding signal (z-score),[9],-0.055
same,glycan array binding signal (z-score),[10],-0.236
same,glycan array binding signal (z-score),[11],-0.23
same,glycan array binding signal (z-score),[12],-0.194
same,glycan array binding signal (z-score),[13],-0.161
same,glycan array binding signal (z-score),[14],-0.301
same,glycan array binding signal (z-score),[15],-0.164
same,glycan array binding signal (z-score),[16],-0.203
same,glycan array binding signal (z-score),[17],-0.232
same,glycan array binding signal (z-score),[18],-0.265
same,glycan array binding signal (z-score),[19],-0.307
same,glycan array binding signal (z-score),[20],-0.214
same,glycan array binding signal (z-score),[21],-0.247
same,glycan array binding signal (z-score),[22],-0.266
